Measured values: PubChem BioAssay AID894 (National Center for Advancing Translational Sciences (NCATS), 2007)
Screen size: about 150,000 compounds; about 6,500 (4.3%) were called active. Inconclusive means that the source gave no clear call. Such entries were picked first, then a sample of the others. Calls come from the whole dose curve; as a rule, active = well fitted inhibition curve with a large enough effect (not every such curve was filed as active); inconclusive = small, poorly fitted or top-dose-only effect, or another doubt; inactive = no such curve, though single readings can be large or run the other way. No potency is given beside an inconclusive call; the fits are too rough.

target: 15-hydroxyprostaglandin dehydrogenase [NAD(+)] (Homo sapiens) (UniProt P15428); assay: qHTS Assay for Inhibitors of HPGD (15-Hydroxyprostaglandin Dehydrogenase); conditions: purified HPGD, NADH fluorescence kinetic, PGE2 substrate; activity change, negative = inhibition: active compounds read low
Chain of UniProt P15428 (P15428 whole entry, looked up): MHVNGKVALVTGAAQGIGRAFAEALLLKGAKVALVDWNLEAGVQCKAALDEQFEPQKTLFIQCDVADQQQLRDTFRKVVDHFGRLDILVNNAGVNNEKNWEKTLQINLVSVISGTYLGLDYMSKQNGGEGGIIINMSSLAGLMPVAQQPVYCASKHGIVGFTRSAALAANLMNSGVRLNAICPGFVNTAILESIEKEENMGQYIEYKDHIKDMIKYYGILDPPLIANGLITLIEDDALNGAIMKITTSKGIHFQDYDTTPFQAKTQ
How it was run: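 20 nM HPGD preincubated 15 min at room temperature with compound in 50 mM Tris-HCl pH 8, 0.01% Tween 20. Started with 1 mM NAD+ and 30 uM prostaglandin E2; NADH fluorescence (360/450 nm) read 5 times over 30-s intervals, last minus first.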
% is set by controls: 0 for no effect and ±100 for the full control effect; potency is the fitted concentration of half-maximal effect; tags give direction and shape of the fitted curve.

Compound | Potency | activity change, negative = inhibition
O=Cc1cccc(OC(=O)c2ccc(Cl)cc2Cl)c1 | active: 15.8 µM | –
CCOc1ccc(C(=O)NC(=S)Nc2ccc(N3CCOCC3)c(Cl)c2)cc1[N+](=O)[O-] | inconclusive [inhibitor, partial curve] | –
Nc1c(Cl)cc(Cl)cc1C(=O)OCC(=O)NC1CC1 | inconclusive [inhibitor, partial curve] | –
CCOc1cc(C2Nc3ccccc3C(=O)N2c2ccccc2OC)ccc1O (centres undefined) | inconclusive [inhibitor, partial curve] | –
C=C(C)C1CC=C(C)/C(=N/NC(=O)c2cccs2)C1 (centres undefined) | inconclusive [inhibitor, single point] | –
COc1ccccc1N1CCN(CCCNC(=O)Nc2ccccc2C)CC1 | – | inactive: 1.2%
Cc1ccc2c(c1)C(N1CCCC1=O)CC(c1ccco1)N2 (centres undefined) | inconclusive [inhibitor, partial curve] | –
COCCSc1ccccc1C(=O)Nc1cc(C)on1 | active: 31.6 µM | –
Cc1cc([N+](=O)[O-])ccc1-c1ccc(C2Nc3ccccc3C(=O)N2O)o1 (centres undefined) | inconclusive [inhibitor, partial curve, poor fit] | –
Cc1ccc2cc3cc(C(=O)N4CC(C)CC(C)C4)oc3nc2c1 (centres undefined) | active: 15.8 µM | –
c1cnc2c(SCc3ccc(-c4nnco4)cc3)cccc2c1 | inconclusive [inhibitor, partial curve] | –
O=C(CN1CCCCCCC1)N/N=C/c1ccccc1F | active: 31.6 µM | –
CC/C(=N/NC(=O)c1ccc(Br)cc1)c1ccc(OCCN2CCOCC2)cc1 | – | inactive: -3.69%
O=c1c2nnn(Cc3ccc(Cl)cc3)c2ncn1Cc1ccc(F)cc1 | active: 28.2 µM | –
CN1CCO[C@H](c2ccccc2)c2ccccc2C1 | – | inactive: -0.485%
Nc1cccc2c1C(=O)N(C(=O)c1cccc(S(=O)(=O)N3CCCC3)c1)C2=O | inconclusive [inhibitor, partial curve] | –
CC1=C(C(=O)Nc2ccccc2)C(c2ccc(C)cc2)N=C(Nc2nc3ccccc3o2)N1 (centres undefined) | inconclusive [inhibitor, partial curve] | –
O=C(COC(=O)c1ccc2c(c1Cl)C(=O)c1ccccc1C2=O)NC1CCCCC1 | active: 6.31 µM | –
Cc1ccc(CN(Cc2cc3cc4c(cc3[nH]c2=O)OCCO4)Cc2nnnn2Cc2ccco2)cc1 | inconclusive [inhibitor, partial curve] | –
Cc1cc(=O)[nH]c2cc(O)ccc12 | inconclusive [inhibitor, partial curve] | –
O=C(/C=C/c1ccco1)Nc1cccc(NC(=O)/C=C/c2ccco2)n1 | – | inactive: -12.8%
O=C(Nc1nccs1)c1csc2c1CCCC2 | active: 25.1 µM | –
O=C1N=C(c2ccccc2)C(c2ccccc2)N1 (centres undefined) | inconclusive [inhibitor, partial curve] | –
Cc1ccc(-n2nc3ccc(N)cc3n2)cc1 | inconclusive [inhibitor, partial curve] | –
COc1ccc(-c2cc(C(=O)N/N=C/c3ccc(OC)c(OC)c3)[nH]n2)cc1 | inconclusive [inhibitor, partial curve] | –

Compound | Potency | activity change, negative = inhibition
N#C/C(C(=O)Oc1ccccc1)=C1\C=Cc2ccccc2N1 | inconclusive [inhibitor, partial curve] | –
N#Cc1ccccc1CN1C(=O)S/C(=C/c2cccn2-c2ccc(C(=O)O)cc2)C1=O | active: 28.2 µM | –
O=C(OCC#CCSc1nc2ccccc2o1)c1cc2ccccc2o1 | – | inactive: -7.21%
CCOC(=O)c1c(N)n(CCOC(=O)c2cccs2)c2nc3ccccc3nc12 | inconclusive [inhibitor, partial curve] | –
Cc1ccc(S(=O)(=O)N/N=C/c2ccc(OCC(=O)Nc3ccccc3Cl)cc2)cc1 | active: 14.1 µM | –
O=[N+]([O-])c1ccc2[nH]nc(-c3ccccc3)c2c1 | active: 14.1 µM | –
Cc1ccc2nc(N3CCN(S(=O)(=O)c4ccc(C)c(Cl)c4)CC3)c(C#N)cc2c1 | inconclusive [inhibitor, single point] | –
COc1cccc(NC(=O)CN(c2cccc(F)c2)S(C)(=O)=O)c1 | – | inactive: -8.15%
C/C(=N\O)c1ccc2[nH]ccc2c1 | – | inactive: -0.876%
CC1(C)CC(=O)C=C(Nc2cc(-c3ccccc3)[nH]n2)C1 | – | inactive: -5.84%
Cc1ccccc1Nc1cc(C)c2c(O)cccc2n1 | inconclusive [inhibitor, partial curve] | –
CCc1nnc(NC(=O)NCN2C(=O)C3C4C=CC(C4)C3C2=O)s1 (centres undefined) | – | inactive: 7.78%
Cc1ccc2[nH]c(=O)c(CNS(=O)(=O)c3ccccc3)c(-c3ccccc3)c2c1 | inconclusive [inhibitor, partial curve] | –
O=C(O)c1cnc(-c2ccccc2)nc1Sc1ccccc1 | active: 14.1 µM | –
CCn1c(-c2ccc(N)cc2)nc2ccccc21 | inconclusive [inhibitor, partial curve] | –
Cc1ccc(OCC(=O)NCc2ccco2)cc1C | active: 20 µM | –
COC(=O)c1ccc2c(c1)SC1=C(CCCC1=O)N2 | active: 39.8 µM | –
N#CC1=C(N)SC(N)=C(C#N)C1c1c(Cl)cccc1Cl | inconclusive [inhibitor, single point] | –
C=CCn1c(=N)c(C(=O)NCCCOC)cc2c(=O)n3cc(C)ccc3nc21 | inconclusive [inhibitor, partial curve] | –
C=CCN1C(=O)C(Cc2ccc(OCC)cc2)SC1=Nc1ccc(C(=O)O)cc1 (centres undefined) | – | inactive: -8.9%
COc1ccc(-c2nc3c(c4c2C[C@H](c2ccccc2)OC4)CN(C(=O)c2cc(I)ccc2F)CC3)c(C)c1 | – | inactive: -2.02%
O=C(O)c1ccc(CSc2nc3ccc(N4C(=O)C5C6C=CC(C6)C5C4=O)cc3s2)cc1 (centres undefined) | active: 15.8 µM | –
CC1(C)CC(=S)Nc2ccccc2S1 | active: 15.8 µM | –
CC(=O)C1=C(NC(=O)c2ccc(F)cc2)CC2C1C2(C)C (centres undefined) | inconclusive [inhibitor, partial curve] | –
COc1cc2[nH]c(-c3cccc(F)c3)cc(=O)c2cc1OC | inconclusive [inhibitor, partial curve] | –

Compound | Potency | activity change, negative = inhibition
COc1ccc(/C=N/NC(=O)Nc2cccc3nsnc23)c(OC)c1 | inconclusive [inhibitor, partial curve] | –
CCCn1c2ccc(/C(C)=N\O)cc2c2cc(/C(C)=N/O)ccc21 | inconclusive [inhibitor, partial curve] | –
COc1ccccc1/C=C/C=N/N1CCN(Cc2ccc(Cl)cc2)CC1 | – | inactive: -24.6%
Cc1cc(C(=O)Cn2nnc3ccccc3c2=O)c(C)n1-c1ccccc1F | inconclusive [inhibitor, partial curve] | –
CCn1c(CNC(C)=O)nnc1SCC(=O)c1ccc(Br)cc1 | inconclusive [inhibitor, single point] | –
COc1cc(NC(=O)c2cccs2)c(C(=O)OCC(=O)c2cc(C)n(-c3ccccc3)c2C)cc1OC | inconclusive [inhibitor, partial curve] | –
COc1ccc(Oc2ncc3ncc(=O)n(Cc4cccc(OC)c4)c3n2)cc1 | active: 17.8 µM | –
Cc1ccccc1Nc1nc(-c2sc(NC(=O)c3ccccc3)nc2C)cs1 | inconclusive [inhibitor, partial curve] | –
Oc1c(C(O)(c2ccccc2)c2ccc3ccccc3c2O)ccc2ccccc12 | inconclusive [inhibitor, partial curve, poor fit] | –
C=CCN1C(c2ccccc2)=CS/C1=C(\C#N)c1nnc2n1CCCCC2 | active: 25.1 µM | –
c1ccc2c(c1)nc(N1CCOCC1)c1c3ccccc3[nH]c21 | inconclusive [inhibitor, partial curve] | –
FC(F)(F)c1cc(-c2ccccc2)nc(NCC2CCCO2)n1 (centres undefined) | inconclusive [inhibitor, partial curve] | –
Cn1cc(Cl)c(C(=O)Nc2nc3ccccc3s2)n1 | – | inactive: -21.3%
O=C1C=C(Nc2ccc(O)cc2)CC(c2ccco2)C1 (centres undefined) | active: 22.4 µM | –
CC1(C)CC(=O)C(CC2=C(O)CC(C)(C)CC2=O)C(=O)C1 | – | inactive: -8.1%
CCN1C(=O)N[C@@H](c2cccs2)C(C(=O)OC)=C1C | – | inactive: -0.439%
Cc1cccc2nc(Cn3c(=O)n(CCCC(=O)NCc4ccco4)c(=O)c4ccccc43)cc(=O)n12 | active: 28.2 µM | –
Cn1nc(C(C)(C)C)cc1C(=O)NCc1ccc(N2CCCC2=O)cc1 | – | inactive: -5.83%
COc1ccc(C(=O)Nc2cc(OC)c(NC(=O)c3ccco3)cc2OC)cc1 | inconclusive [inhibitor, single point] | –
C1=Nc2ccccc2CN1c1ccccc1 | inconclusive [inhibitor, partial curve] | –
O=C(NC1CC1)c1ccc2c(c1)NC(=O)c1ccccc1S2 | active: 20 µM | –
Cc1ccc2nc(NCc3ccccc3)c(C=O)c(=O)n2c1 | inconclusive [inhibitor, partial curve] | –
COc1ccc(S(=O)(=O)N2CN(Cc3ccco3)c3nc4ccccc4nc32)cc1 | inconclusive [inhibitor, partial curve] | –
CCCCCCNC(=O)c1c(O)c2cccc3c2n(c1=O)CCC3 | inconclusive [inhibitor, partial curve] | –
